{"source": "patent US20230002478A1", "about": "(TWIST BIOSCIENCE, published 2023)", "binders": {"B1": {"name": "bispecific monoclonal antibody 493-004 (bispecific antibody)", "chain": "EVQLVESGGGLVQPGGSLRLSCAASGFTFSPSWMGWFRQAPGKEREFVATINEYGGRNYADSVKGRFTISADNSKNTAYLQMNSLKPEDTAVYYCARVDRDFDYWGQGTLVTVSSGGGGS[no letters for human IgG1 Fc with C220S (EU numbers)]GGGSGGGGSASEVQLVESGGGLVQPGGSLRLSCAASGSTFSINAMGWFRQAPGKEREFVAGITSSGGYTNYADSVKGRFTISADNSKNTAYLQMNSLKPEDTAVYYCAADGVPEYSDYASGPVWGQGTLVTVSS"}}, "biological_target": "T1, biotinylated SARS-CoV-2 spike RBD (Ancestral) (SARS-CoV-2)", "T1 construct": "domain: RBD", "assay": "AlphaLISA, inhibition of ACE2-muFc / biotinylated spike complex", "data": [{"binder": "B1", "values": [{"measurement": "IC50", "result": 10.4, "unit": "nM"}]}]}
